The other results are listed elsewhere or left out. Shown are side measurements of this screen, not its main read-out; they come without a call.

The record followed here is PubChem BioAssay AID2202238 (Ras Initiative Chemistry Research Team, Frederick National …, 2025).

For this assay, the target named is GTPase KRas (Homo sapiens) (UniProt P01116). The assay is described as follows: Covalent labelling of cysteine mutants by fragments, read by mass spectrometry (AID 2202238). Set-up: protein at 5 µM with 500 µM competing thiol for 1.5 h. Particulars: KRAS G12D cysteine mutants, disulfide tethering, MALDI-TOF labeling, stronger effect = higher value, fragment at 500 µM.
[1] abbreviates: measured here: G75C mutant labeling.
The mark [2] stands for this setting: measured here: H94C mutant labeling.
[3] abbreviates: measured here: I36C mutant labeling.
Setting [4] is: measured here: L120C mutant labeling.
[5] abbreviates: measured here: M67C mutant labeling.
Setting [6] is: measured here: M72C mutant labeling.
The mark [7] stands for this setting: measured here: N86C mutant labeling.
Setting [8] is: measured here: P121C mutant labeling.
Setting [9] is: measured here: S122C mutant labeling.
Setting [10] is: measured here: S136C mutant labeling.
[11] abbreviates: measured here: G60C mutant labeling.
Where [12] appears, read: measured here: N26C mutant labeling.

Sequence of UniProt P01116 (P01116 whole entry, looked up, the tested form may be a part): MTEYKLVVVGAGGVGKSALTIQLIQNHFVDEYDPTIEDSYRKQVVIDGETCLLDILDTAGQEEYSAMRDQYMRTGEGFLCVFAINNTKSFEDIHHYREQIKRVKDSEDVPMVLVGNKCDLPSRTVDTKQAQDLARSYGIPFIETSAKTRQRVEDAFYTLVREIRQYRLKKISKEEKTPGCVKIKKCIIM

For `Cc1cc(NC(=O)CCS)cnc1NC(=O)c1cccc(O)c1`, the percent labeling turned out to be 16.4% under setting [1]; 23.4% under setting [2]; 33.9% under setting [3]; 19.6% under setting [4]; 28.5% under setting [5]; 32.2% under setting [6]. The percent labeling runs as follows: under setting [7], 19%; under setting [8], 21.6%; under setting [9], 23.1%; under setting [10], 43.8%.
In the case of `O=C(NCCS)c1nc(Br)cs1`, the percent labeling reads like this: under setting [11], 35.1%; under setting [1], 22.5%; under setting [2], 33.3%; under setting [3], 14.1%; under setting [4], 26.3%; under setting [5], 18.8%. Besides, the percent labeling worked out at 42.7% under setting [6]; 32.2% under setting [12]; 19.3% under setting [7]; 21% under setting [8]; 18% under setting [9]; 30.1% under setting [10].
`Cc1nc(=O)[nH]c(C)c1CCC(=O)NCCS`: the percent labeling reads like this: under setting [11], 20%; under setting [1], 4.9%; under setting [2], 18.3%; under setting [3], 17.3%; under setting [4], 21.1%; under setting [5], 15.2%. Moreover, the percent labeling was determined as 6% under setting [6]; 20.1% under setting [12]; 12.6% under setting [7]; 27.8% under setting [8]; 15.2% under setting [9]; 28.4% under setting [10].
Regarding `O=C(CCNC(=O)Cc1ccccc1)NCCS`, the percent labeling runs as follows: under setting [11], 23.8%; under setting [1], 10%; under setting [2], 32.1%; under setting [3], 31.6%; under setting [4], 42.2%; under setting [5], 35.2%. The percent labeling is, setting by setting: under setting [6], 25.5%; under setting [12], 32.4%; under setting [7], 23.1%; under setting [8], 35.5%; under setting [9], 31.5%; under setting [10], 50.3%.
As for `O=C(CCS)N1CCCCC1c1noc(=O)[nH]1` (stereo unspecified), the percent labeling reads like this: under setting [1], 8%; under setting [2], 20.8%; under setting [3], 21.1%; under setting [4], 41.4%; under setting [5], 19.4%; under setting [6], 12.1%. In addition, the percent labeling stood at 29.3% under setting [7], 31.3% under setting [8], 42.9% under setting [9] and 41.1% under setting [10].
Turning to `Cc1c(C(=O)NCCS)[nH]c(=O)c2ccccc12`, the percent labeling is, setting by setting: under setting [11], 33.7%; under setting [1], 3.7%; under setting [2], 9.4%; under setting [3], 15.2%; under setting [4], 15.5%; under setting [5], 21.6%. The percent labeling was determined as 41.9% under setting [6]; 40.9% under setting [12]; 23.8% under setting [7]; 37.2% under setting [8]; 18.2% under setting [9]; 35.5% under setting [10].
Regarding `O=C(NCCS)C1CCN(S(=O)(=O)c2ccc(OC(F)(F)F)cc2Cl)CC1`, the percent labeling was 13% under setting [11]; 10.6% under setting [1]; 5.3% under setting [2]; 3.2% under setting [3]; 6.5% under setting [4]; 8.6% under setting [5]. The same compound displayed a percent labeling under setting [6] of 6%; a percent labeling under setting [12] of 16.7%; a percent labeling under setting [7] of 5.7%; a percent labeling under setting [8] of 4.1%; a percent labeling under setting [9] of 0%; a percent labeling under setting [10] of 9.1%.
As to `O=C(NCCS)c1coc(-c2ccc(F)cc2)n1`, the percent labeling is, setting by setting: under setting [11], 22.3%; under setting [1], 13.4%; under setting [2], 14.8%; under setting [3], 7.1%; under setting [4], 17.3%; under setting [5], 8.1%. Besides, the percent labeling under setting [6] was 33.3%; the percent labeling under setting [12] stood at 29.5%; the percent labeling under setting [7] was 7.4%; the percent labeling under setting [8] worked out at 13.2%; the percent labeling under setting [9] came to 8.9%; the percent labeling under setting [10] was 20%.
For the compound `Cc1csc(Nc2ccc(C(=O)NCCS)cc2)n1`, the percent labeling runs as follows: under setting [11], 18.7%; under setting [1], 9.8%; under setting [2], 12.4%; under setting [3], 8.5%; under setting [4], 16.4%; under setting [5], 14.5%. The compound also showed a percent labeling under setting [6] of 36.8%; a percent labeling under setting [12] of 29.9%; a percent labeling under setting [7] of 6%; a percent labeling under setting [8] of 11.9%; a percent labeling under setting [9] of 9.5%; a percent labeling under setting [10] of 15.5%.
With `CC(C)(C)OC(=O)C1CC(O)(C2CCN(C(=O)CCS)CC2)C1` (stereo unspecified), the percent labeling was 10.1% under setting [1]; 29.4% under setting [2]; 24.8% under setting [3]; 31.4% under setting [4]; 35.2% under setting [5]; 23.9% under setting [6]. Moreover, the percent labeling reads like this: under setting [7], 23.7%; under setting [8], 28.3%; under setting [9], 32.7%; under setting [10], 50.6%.
In the case of `O=C(NCCS)c1nsc2cc(Br)ccc12`, the percent labeling is, setting by setting: under setting [11], 17.8%; under setting [1], 11.9%; under setting [2], 14.4%; under setting [3], 11%; under setting [4], 11.4%; under setting [5], 10.3%. The percent labeling reads like this: under setting [6], 43.4%; under setting [12], 25.9%; under setting [7], 9.7%; under setting [8], 12.5%; under setting [9], 6.4%; under setting [10], 11.7%.
Compound `O=C(NCCS)c1cnn(-c2cccc(Br)c2)c1` returned a percent labeling under setting [11] of 9.7%; a percent labeling under setting [1] of 6.7%; a percent labeling under setting [2] of 6.7%; a percent labeling under setting [3] of 8.7%; a percent labeling under setting [4] of 6%; a percent labeling under setting [5] of 6.2%. Also, the percent labeling is, setting by setting: under setting [6], 32.1%; under setting [12], 23.4%; under setting [7], 8.3%; under setting [8], 8.1%; under setting [9], 4.1%; under setting [10], 6.9%.
On to `O=C(NCCS)C1(c2cccs2)CCCCC1`, for which the percent labeling is, setting by setting: under setting [11], 46%; under setting [1], 14.3%; under setting [2], 19.2%; under setting [3], 15.1%; under setting [4], 27.2%; under setting [5], 17.5%. The compound also registered a percent labeling under setting [6] of 38.9%; a percent labeling under setting [12] of 26.5%; a percent labeling under setting [7] of 11.8%; a percent labeling under setting [8] of 18.6%; a percent labeling under setting [9] of 13.4%; a percent labeling under setting [10] of 25.9%.
For the compound `CC(C)(C)c1noc2ncc(C(=O)NCCS)cc12`, the percent labeling runs as follows: under setting [11], 27.6%; under setting [1], 18.5%; under setting [2], 24.6%; under setting [3], 17.3%; under setting [4], 21.3%; under setting [5], 17.6%. Also, the percent labeling amounted to 32.2% under setting [6]; 29.6% under setting [12]; 16.9% under setting [7]; 18.3% under setting [8]; 15.8% under setting [9]; 38.5% under setting [10].
Turning to `O=C(CCS)NCCC1CN(c2ncnc3[nH]ncc23)c2ccccc21` (stereo unspecified), the percent labeling amounted to 5.4% under setting [1]; 15.9% under setting [2]; 20.9% under setting [3]; 7.8% under setting [4]; 17% under setting [5]; 21.8% under setting [6]. The percent labeling by setting is: under setting [7], 0%; under setting [8], 9.1%; under setting [9], 4.1%; under setting [10], 35.2%.
With `COc1ccc2[nH]c(C(=O)NCCS)cc2c1OC`, the percent labeling by setting is: under setting [11], 27.3%; under setting [1], 18%; under setting [2], 19.5%; under setting [3], 20.3%; under setting [4], 23%; under setting [5], 17.5%. The percent labeling runs as follows: under setting [6], 39%; under setting [12], 35.1%; under setting [7], 18.7%; under setting [8], 16.5%; under setting [9], 17.4%; under setting [10], 25.3%.
On to `O=C(NCCS)c1cc(C2CC2)nc2onc(-c3ccccc3)c12`, for which the percent labeling was found to be 34.1% under setting [11]; 7% under setting [1]; 9.6% under setting [2]; 8% under setting [3]; 6.8% under setting [4]; 7.6% under setting [5]. In addition, the percent labeling under setting [6] turned out to be 20.6%; the percent labeling under setting [12] was 19.9%; the percent labeling under setting [7] was 4.1%; the percent labeling under setting [8] is 7.8%; the percent labeling under setting [9] was 4.1%; the percent labeling under setting [10] was 15.5%.
`COc1ccc(Br)cc1-c1nc(C(=O)NCCS)cs1` returned a percent labeling under setting [11] of 30%; a percent labeling under setting [1] of 38.1%; a percent labeling under setting [2] of 12.6%; a percent labeling under setting [3] of 9.2%; a percent labeling under setting [4] of 13.8%; a percent labeling under setting [5] of 6%. The percent labeling reads like this: under setting [6], 53%; under setting [12], 33.2%; under setting [7], 8.8%; under setting [8], 14.4%; under setting [9], 6.5%; under setting [10], 21.2%.
As to `CC(C)(C(=O)NCCS)c1ccc(Cl)c(Cl)c1`, the percent labeling by setting is: under setting [11], 39.3%; under setting [1], 15.8%; under setting [2], 16.9%; under setting [3], 12.4%; under setting [4], 21.8%; under setting [5], 17.8%. The percent labeling came to 33.2% under setting [6]; 28.2% under setting [12]; 13.7% under setting [7]; 15.5% under setting [8]; 12.5% under setting [9]; 21.4% under setting [10].
Take `Cc1nc2sccn2c1C(=O)NCCS`: the percent labeling is, setting by setting: under setting [11], 45.8%; under setting [1], 31.3%; under setting [2], 51.4%; under setting [3], 28.7%; under setting [4], 33.2%; under setting [5], 37.3%. The same compound displayed a percent labeling under setting [6] of 53%; a percent labeling under setting [12] of 52.1%; a percent labeling under setting [7] of 34%; a percent labeling under setting [8] of 33.1%; a percent labeling under setting [9] of 35.3%; a percent labeling under setting [10] of 60.8%.
On to `Cc1cc(CC(C)(C)C(=O)NCCS)ccc1Br`, for which the percent labeling under setting [11] was found to be 32.8%; the percent labeling under setting [1] was found to be 13.4%; the percent labeling under setting [2] was 13.1%; the percent labeling under setting [3] came out at 8%; the percent labeling under setting [4] came out at 9.6%; the percent labeling under setting [5] is 11.4%. The percent labeling turned out to be 26.3% under setting [6]; 20.7% under setting [12]; 9.8% under setting [7]; 10.5% under setting [8]; 6.6% under setting [9]; 12.6% under setting [10].
`CC1CCN(c2cc(C(=O)NCCS)ccn2)C1` (stereo unspecified): the percent labeling stood at 28.1% under setting [11]; 20.8% under setting [1]; 24.9% under setting [2]; 17.2% under setting [3]; 21.9% under setting [4]; 20.2% under setting [5]. For the same compound, the percent labeling under setting [6] turned out to be 60.8%; the percent labeling under setting [12] came out at 49%; the percent labeling under setting [7] amounted to 13.6%; the percent labeling under setting [8] was found to be 15.5%; the percent labeling under setting [9] was determined as 13.8%; the percent labeling under setting [10] was determined as 46.3%.
